Data reported in the supplement of paper PMC11417369.
± gives the standard deviation of the averaged measurements. The list shows a part of the results.

Tested on: PfAP2-EXP AP2 domain (GST-tagged)
Assay: gcPBM binding intensity (ln(normalized median fluorescence intensity)); higher = stronger DNA binding
Procedure, shortened: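 Alexa488 anti-GST antibody, scanned at 488 nm, detected GST-tagged P. falciparum DNA-binding domains that had been expressed in E. coli and incubated for 1 h on an Agilent 4 × 180k array. The array carried primer-extended double-stranded 36-bp intergenic genomic probes and negative controls. Binding intensity is the highest Masliner-normalised natural-log median intensity across replicate spots of either orientation of each probe.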

Sequence	gcPBM binding intensity (ln)
AAGTTATTGATATATACACACAAATATAAATAATAT [CACACA_site6695]	8.52 ± 0.39
AATACATATCAAAGCTGTACAAAGTAAATTTTACTT [XGTACX_site3525]	8.74 ± 0.41
TAGAAGCATGGACACACACACATACATACCCATACA [CACACA_site4916]	8.72 ± 0.47
TTATTTTTCCGGAATAGTACATAGACGCAGATATAA [XGTACX_site6356]	9.12 ± 0.47
AAAAAAAAAAAAAAAGTGCACAGTCGTTTTAAAAAA [GTGCAC_site9848]	8.79 ± 0.11
TCTATATCTTTCAACACACAAATTTTTTTTTCCATC [CACACA_site4238]	8.62 ± 0.46
CTTTTCTCCCTCCATAGTACAATTATAAAAATATAT [XGTACX_site3090]	8.75 ± 0.071
ATGCAAAGTTTATAAAGTACATAAGTCAAAATAAAA [XGTACX_site1441]	8.94 ± 0.39
AAGATAATATTTTCTTGTACGCATGCACATACAAAT [XGTACX_site7181]	9.4 ± 0.31
ATTAACTATCATAACACACACAGTAGACATATTTTT [CACACA_site1822]	8.37 ± 0.38
AAATCATTTAAGAACACACAAATATTTCCATTAAAT [CACACA_site6808]	8.4 ± 0.45
CTCAATGTTTGCGATACATGCAAAAATTTTTAGAAT [TGCATGCA_site165]	8.62 ± 0.37
TACATTTCATTGTAATCATAAAAAATAAAGAAAAAA [XGTACX_negctrl_site542]	8.43 ± 0.54
GAAAGGATATATATATATATATATATAATACATTTC [GTGCAC_negctrl_site677]	8.58 ± 0.099
TATATATACATACATACACACATATATATATATATT [CACACA_site4110]	8.71 ± 0.4
ACATATAATATATAATGTACAAAATTGTTAACAATA [XGTACX_site3798]	8.62 ± 0.49
AAGGGGTAAAGAAAAACACACAAAAAATAAAAATAT [CACACA_site361]	8.86 ± 0.62
AAGAGAAAAATATATACACACACATAAATATATACA [CACACA_site8573]	8.62 ± 0.46
GAAATAATTCGATGTGCATGTAACGTTTCCCCAAAG [TGCATGCA_site122]	9.18 ± 0.45

Sequence	gcPBM binding intensity (ln)
TGCATACTTTTGTAAGTGCATAAAATCGTACCATGC	8.71 ± 0.11
GATGAAAATAGAAATACACACTAAAAAATAAAATTA [CACACA_site4764]	8.44 ± 0.4
AATTAAAAAAAATACACACACACATACACATATATA [CACACA_site3298]	8.91 ± 0.26
CCAAAAAAAAAAAAAAGTACATAAAAACAAGAGAAT [XGTACX_site3037]	8.94 ± 0.72
CGTATTTATATAATTACACACCATATTATAATTATT [CACACA_site3760]	8.63 ± 0.35
GTACATAGATTGTACATACACACCTATATAAATATC [CACACA_site3225]	8.53 ± 0.31
TTTTTTTTGTTCTATACAATTATAAAAATAAAATAT [XGTACX_negctrl_site53]	8.15 ± 0.31
AATATATGGTTCCATGATATTAAATTCAATTTAATG [CACACA_negctrl_site605]	8.21 ± 0.39
TAATATCATTTATGTAGTACTATAACAAGAACTATA [XGTACX_site3618]	8.33 ± 0.35
AAAAAAAAAAAGCACACACACATATGAGTATATATA [CACACA_site4683]	8.54 ± 0.59
GCTTATATAAAAAGTTGTACAACCGAATCTTTTACA [XGTACX_site2119]	8.78 ± 0.37
TACACAAGCAGACACACACACATATATATATATATA [CACACA_site1270]	10.1 ± 0.53
AATGTAAAAGTAAACACACACATATATAAATACATA [CACACA_site5386]	8.78 ± 0.26
TAGATATATAGACACACACACATTAATACCTATATT [CACACA_site7605]	8.69 ± 0.3
TGTCATTTAATTTTTTGTACGAAAAAAACATATAAA [XGTACX_site4952]	8.6 ± 0.24
TATATATATAGACACACACACACATATATATATATA [CACACA_site9366]	10.1 ± 0.42
GTATATATATATGTATATATTTTATTTTATTTTTAT [CACACA_negctrl_site1439]	8.19 ± 0.34
AGTTGTTTTAATAATGCATGTTATTTTATTTTAATA [TGCATGCA_site168]	8.68 ± 0.28
CTTATTATTATATGGGTGCTCATATTTTTCTTTTTT [GTGCAC_site9723]	8.58 ± 0.38

Sequence	gcPBM binding intensity (ln)
ACAAACATTAGGGAAGCATGCAATATTTTTTTACAT [TGCATGCA_site372]	9.13 ± 0.56
ATTATATACATATATATACACACGTAGTTTCTATTT [CACACA_site8697]	8.36 ± 0.33
TACTTTTTATTTTCTTGTACTTAATTGTCCAGATTT [XGTACX_site4334]	8.72 ± 0.52
TATAAATAAATAGATACACACATATATATAAATACA [CACACA_site155]	8.59 ± 0.39
ATATATATATATAAATGTACATTTTTCAATAGTTTT [XGTACX_site7449]	10.1 ± 0.3
ATTTTAATATAAAATACACACTACTATTATAAATAT [CACACA_site4917]	8.26 ± 0.49
GTACACATATAGTAATAATTTTATTATATTTTTTTG [CACACA_negctrl_site843]	8.46 ± 0.3
CACCCCCACAGACACACACACACACCCACATATATA [CACACA_site365]	9.27 ± 0.39
ATTCTTATTTAAAGGTGTACTCTTAAACAGATTTTA [XGTACX_site3526]	8.38 ± 0.28
TTCATAAAATGATATTGTACAAATAAATAATAGTAT [XGTACX_site819]	8.98 ± 0.53
GGTCTTCTTAATATACTGCACTGTATACGTATATAA	9.18 ± 0.18
AGATTTAAATTTATATGTACATAATATGGGCGTATA [XGTACX_site6631]	8.94 ± 0.45
TGTAGATTTTGTAACACACACATATATATACATATA [CACACA_site2405]	8.4 ± 0.4
AGAGATACATAAAAAAGTACATATAAAATTTAGGAA [XGTACX_site7201]	8.69 ± 0.38
TAAGTATACTCATACACACACACACTAGAAAAAAAA [CACACA_site4397]	8.68 ± 0.53
TATTTATTTATATACACACACTTGTATAAAAAATGT [CACACA_site7048]	8.36 ± 0.3
TACAAATTAATATGTACACACAAATATATATATATA [CACACA_site1977]	9.93 ± 0.42
ATAATATGAAACTAAGGTACACATATATTAACAGAG [XGTACX_site3842]	8.915 ± 0.078
TGCGACCATAATAAAGCACACAATGAAAAATATATA [CACACA_site256]	8.84 ± 0.29
